Data reported in PMC4336329 (PLoS ONE, 2015).
Out of some 310,000 compounds screened, about 2,200 (0.71%) showed an effect of 50% or more. Effects have a minus sign here. The list shows a part of the results.

Target: human ether-à-go-go-related gene (hERG) potassium channel (human, UniProt Q12809)
Test: primary screen, population patch clamp on CHO cells stably expressing hERG

human ether-à-go-go-related gene (hERG) potassium channel, sequence (Q12809 whole entry, looked up): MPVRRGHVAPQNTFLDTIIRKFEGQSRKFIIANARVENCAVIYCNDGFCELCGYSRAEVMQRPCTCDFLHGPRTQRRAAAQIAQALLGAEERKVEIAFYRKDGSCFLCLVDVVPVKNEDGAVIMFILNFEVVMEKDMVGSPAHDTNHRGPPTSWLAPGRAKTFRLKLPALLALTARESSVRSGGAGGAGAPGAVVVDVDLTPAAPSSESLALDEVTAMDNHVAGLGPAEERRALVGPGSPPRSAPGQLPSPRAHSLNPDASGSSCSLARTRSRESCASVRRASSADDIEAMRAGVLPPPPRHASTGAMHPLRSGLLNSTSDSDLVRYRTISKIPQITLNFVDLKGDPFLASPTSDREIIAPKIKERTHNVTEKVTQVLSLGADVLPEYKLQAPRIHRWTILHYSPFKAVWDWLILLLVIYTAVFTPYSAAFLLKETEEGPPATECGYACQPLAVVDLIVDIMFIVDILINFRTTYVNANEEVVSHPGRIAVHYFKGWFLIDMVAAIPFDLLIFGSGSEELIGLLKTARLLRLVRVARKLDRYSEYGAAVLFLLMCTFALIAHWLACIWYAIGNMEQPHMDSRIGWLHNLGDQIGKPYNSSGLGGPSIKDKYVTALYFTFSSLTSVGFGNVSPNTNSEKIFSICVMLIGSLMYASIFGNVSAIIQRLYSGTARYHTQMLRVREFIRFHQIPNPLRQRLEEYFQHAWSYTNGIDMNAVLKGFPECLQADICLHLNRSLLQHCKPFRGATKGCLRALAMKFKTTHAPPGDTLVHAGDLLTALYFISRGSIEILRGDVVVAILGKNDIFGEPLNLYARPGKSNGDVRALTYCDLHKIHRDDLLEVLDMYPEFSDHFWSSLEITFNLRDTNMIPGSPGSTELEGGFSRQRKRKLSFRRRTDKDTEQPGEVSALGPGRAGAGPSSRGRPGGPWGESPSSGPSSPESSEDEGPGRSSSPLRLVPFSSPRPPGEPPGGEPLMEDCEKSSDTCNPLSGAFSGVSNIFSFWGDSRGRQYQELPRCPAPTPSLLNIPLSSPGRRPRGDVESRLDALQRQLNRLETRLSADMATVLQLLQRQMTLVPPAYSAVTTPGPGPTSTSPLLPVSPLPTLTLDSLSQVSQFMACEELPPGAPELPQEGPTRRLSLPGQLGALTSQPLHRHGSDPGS

Row | Structure (SMILES) | hERG current change (%, negative = inhibition) at 1uM [%]
1 | COc1ccc(N2CCN(c3cc(C)c4ccc(O)cc4n3)CC2)cc1 | -6.77
2 | CC(C)(CC(=O)O)CC(=O)NNc1ncccc1C#N | 12.3
3 | COC(=O)c1ccc(N2CCN(S(=O)(=O)c3ccc(C)cc3)CC2)c([N+](=O)[O-])c1 | 10.3
4 | Cc1cc(N2CCCC2)nc2ccccc12 | -4.05
5 | CC(C)CCNC(=O)C(=O)NCCC1=CCCCC1 | 10.1
6 | Cc1cccc(C(=O)N2CCN(S(=O)(=O)c3ccc4c(c3)OCCCO4)CC2)c1[N+](=O)[O-] | 11.9
7 | O=C(CCCNC(=O)c1ccc(Cl)cc1)Nc1ccccc1F | 11.3
8 | CC1CC(C)CN(CCCNC(=O)Cc2c(C(=O)O)[nH]c3ccccc23)C1 (centres unmarked) | 13
9 | Cc1ccc(-c2c3c(=O)n(C)c(=O)n(C)c3cn2Cc2ccccn2)cc1 | 4.86
10 | CN1CC2(C)CN(C(c3ccccc3)c3ccccc3)CC(C)(C1)C2O (centres unmarked) | 4.82
11 | O=C(COc1ccc2ccccc2c1)NCC1CCCO1 (centres unmarked) | 12
12 | COC(=O)c1cc(S(=O)(=O)NCC2CCN(Cc3cccc(F)c3)CC2)cn1C | 2.34
13 | CCOc1ccccc1CNC(=O)c1ccccc1NC(=O)C1=CSCCO1 | 28.2
14 | O=C(COc1ccccc1[N+](=O)[O-])NCCCN1CCCC1=O | 9.5
15 | Cc1ccc(S(=O)(=O)N2CCCCC2)cc1NC(=O)c1ccc(Br)o1 | 2.25
16 | CCOC(=O)c1nn(-c2ccc(OCC)cc2)c(C)c1C(C)=O | 7.59
17 | Cc1ccccc1-n1c(C)nnc1SCC(=O)N1CC(=O)Nc2ccccc21 | 11.6
18 | COc1ccc(C(=O)OC(C)C(=O)NC(C)CCc2ccccc2)cc1[N+](=O)[O-] (centres unmarked) | 4.49
19 | CC(C)CNS(=O)(=O)c1ccc(S(=O)(=O)N2CCN(C3CCCC3)CC2)cc1 | 8.36
20 | CCCNC(=O)C1CCN(S(=O)(=O)c2ccc3nc4c(c(C(=O)O)c3c2)CCCCC4)CC1 | 13.9
21 | COc1ccc(CCNC(=O)CCCn2c(=O)c3cccn3c3cccnc32)c(OC)c1 | 6.3
22 | O=c1oc(-c2ccco2)nc2sc3c(c12)CCCC3 | 11.5
23 | CN1/C(=C\C(=O)COC(=O)c2ccco2)C(C)(C)c2ccccc21 | 5.74

Row | Structure (SMILES) | hERG current change (%, negative = inhibition) at 1uM [%]
24 | O=C(NC(=S)Nc1cccnc1Cl)c1ccc(Cl)cc1 | 12
25 | Cc1cccc(Oc2nc(CN3CCOCC3)nc3sc4c(c23)CCCC4)c1 | 7.84
26 | CC(=O)Nc1ccc(-c2cc(C(=O)O)c3ccc(C)cc3n2)cc1 | 12.6
27 | O=C(O)c1ccccc1NC(=O)N1CCOCC1 | 7.59
28 | CCOc1ccc(OCC)c(NC(=O)CCS(=O)(=O)c2ccc(C)cc2)c1 | 11.3
29 | CN(C)CCCNc1oc(/C=C/c2cccs2)nc1S(=O)(=O)c1ccccc1 | -10.4
30 | Cc1ccccc1Nc1cc(C)c2c(O)cccc2n1 | 3.37
31 | CCN1/C(=C/c2ccc3ccc(C)cc3[n+]2CC)Sc2ccccc21.[I-] | -63.6
32 | COc1cc(OC)nc(Oc2cc(C=O)ccc2OC)n1 | 1.31
33 | O=C(NC(=O)c1ccccc1)OCCN1C(=O)c2ccccc2C1=O | 0.938
34 | CCC(CC)NC(=O)/C=C/c1cccc([N+](=O)[O-])c1 | 5.37
35 | Cc1cccc([N+](=O)[O-])c1NC(=O)COC(=O)C1CCCO1 (centres unmarked) | 10.3
36 | COc1ccc(-c2nn(-c3ccccc3)cc2/C=C/C(=O)N2CCOCC2)cc1OC | 4.52
37 | O=C(Nc1ccc(N2CCCCC2)cc1)c1ccc([N+](=O)[O-])o1 | 9.19
38 | CCOc1ccc(-c2nc(CS(=O)(=O)CC(=O)NCc3ccc(F)cc3)c(C)o2)cc1 | 20.3
39 | Cc1ccc(S(C)(=O)=O)cc1S(=O)(=O)Nc1cccc(Cl)c1 | 6.69
40 | COc1cc(S(=O)(=O)Nc2cccc(C)c2)ccc1N=Cc1c(C)[nH]n(-c2ccccc2)c1=O | 10.4
41 | CC1CC2(O)c3nonc3CCC2N1O (centres unmarked) | -1.14
42 | CSc1ccccc1-c1nnc(NC(=O)Cc2ccccc2)o1 | 12.8
43 | O=C(Nc1ccccn1)c1ccc(=O)[nH]n1 | 10.4
44 | O=C(Cn1nnc(-c2cccc(C(F)(F)F)c2)n1)N1CCCCCC1 | 6.45
45 | COc1ccc(N2CCN(c3ccc(NC(=O)c4ccc5c(c4)OCO5)cc3C#N)CC2)cc1 | 10.4
46 | CCn1c(C)c(C)c2cc(C(=O)N3CCN(c4ccccc4)CC3)ccc21 | 13.5

Row | Structure (SMILES) | hERG current change (%, negative = inhibition) at 1uM [%]
47 | CCNS(=O)(=O)c1ccc(NS(=O)(=O)c2cc(C)ccc2C)cc1 | 2.05
48 | CCOc1ccc(S(=O)(=O)Nc2ccc(C(=O)NCc3ccncc3)cc2)cc1 | 1.96
49 | COC(=O)c1sc(NC(=O)COc2ccccc2)nc1C | 3.47
50 | O=C(c1cccc([N+](=O)[O-])c1)N1CCN(c2ncccn2)CC1 | -5.31
51 | C=CCOc1cccc(/C=N/NC(=O)CN2CCCCC2)c1 | -4.04
52 | O=C(NCc1ccccc1)Nc1cccn(Cc2ccccc2F)c1=O | 10.8
53 | Cc1ccc(F)c(CNC(=O)C2CCC(=O)N(Cc3ccccn3)C2)c1F (centres unmarked) | 16.3
54 | O=C(NCc1ccccn1)c1cccs1 | 16.1
55 | CCCN1CCN(CC(=O)Nc2nc3ccccc3s2)CC1 | -17.9
56 | O=C(Nc1ccccc1)c1ccccc1NC(=O)C(F)(F)F | 6.51
57 | CCOC(=O)C1=C(COc2ccccc2)NC(=O)NC1c1cccc([N+](=O)[O-])c1 (centres unmarked) | 9.78
58 | C/C(N)=C(/C#N)C(=O)CSc1ccc2c(c1)OCCO2 | 1.5
59 | COc1ccc(-c2cc(C(F)(F)F)nc(S(C)(=O)=O)n2)cc1 | 7.98
60 | COc1cc(/C=C2/C(=N)N3OC(C)=CC3=NC2=O)ccc1OC(=O)c1ccco1 | 16.9
61 | O=C(N1CCOCCOc2ccccc2OCCOCC1)C(F)(F)F | 12.6
62 | Brc1ccc(/C=N/n2cnnc2)s1 | 7.67
63 | Cc1ccc(/C(N)=N/OC(=O)CCCc2ccccc2)cc1 | 10.7
64 | COc1cc(OC)cc(C(=O)NNS(=O)(=O)c2ccc(F)cc2)c1 | 13
65 | N#CCSc1nc2ccccc2o1 | 9.83
66 | Cn1c(NC(=O)c2ccc(Cl)s2)cc(=O)n(C)c1=O | 1.13
67 | COc1ccc(CC(=O)Nc2cc(NC(=O)Cc3ccc(OC)c(OC)c3)cc(C(=O)O)c2)cc1OC | 17.3
68 | CC(Oc1ccc2c3c(c(=O)oc2c1)CCC3)C(=O)NC1CCN(Cc2ccccc2)CC1 (centres unmarked) | -13.8
69 | O=C(Nc1ccc(Br)cc1)N1CCCCCCC1 | 5.12

Row | Structure (SMILES) | hERG current change (%, negative = inhibition) at 1uM [%]
70 | NNc1nc(-c2ccccc2Cl)c2cc(Br)ccc2n1 | 14.2
71 | COC(=O)CC1C(=O)NCCN1C(=O)Nc1ccc(Cl)c(Cl)c1 (centres unmarked) | 7.86
72 | O=C(Cc1c(Sc2ccccc2)c2ccccc2n1Cc1ccccc1)NCCO | 16
73 | COc1ccc(-n2nnc3c(=O)n(CC(=O)N4CCC(C)CC4)cnc32)cc1 | 4.68
74 | C/C(=N\NC(=O)c1ccco1)c1cc(Cl)sc1Cl | 9.15
75 | CCN(CC)c1ccc(NC(=O)COc2ccccc2C)cc1S(=O)(=O)Nc1ccccc1OC | 24.9
76 | CCC(Sc1nc2ccccc2c2nc3ccccc3n12)C(=O)NCc1ccco1 (centres unmarked) | 8.33
77 | Cc1c(C(c2ccc([N+](=O)[O-])cc2)c2c(C)n(C)n(-c3ccccc3)c2=O)c(=O)n(-c2ccccc2)n1C | -4.93
78 | O=C(CCC(=O)N1CCOc2ccc(Cl)cc21)N1CCN(c2ccccn2)CC1 | -16.8
79 | O=C(NC1=NCCS1)c1cc(Cl)ccc1Cl | 10.7
80 | COc1ccc(CN2CCC(n3nccc3NC(=O)C3CCCC3)CC2)cc1 | -47.4
81 | NC(=O)[C@@H]1CCCCNc2c(F)cc([N+](=O)[O-])cc2C(=O)N[C@@H](CCCN=C(N)N)C(=O)NCC(=O)N1 | 18
82 | Cc1c(NC(=O)Cn2cc([N+](=O)[O-])cn2)c(=O)n(-c2ccccc2)n1C | 14.6
83 | COc1cc(OC)c(C(=O)Nc2ccc(N(C)C)cc2)cc1OC | 4.96
84 | COc1ccccc1CN1CCc2c([nH]c3ccccc23)C1 | 7.45
85 | Cc1c(Cl)cccc1NC(=O)Cn1cccc1 | 1.99
86 | COC(c1ccccc1)(c1ccccc1)C(Oc1nc(C)cc(C)n1)C(=O)O (centres unmarked) | 24.1
87 | Cn1c(SCCC(=O)O)nnc1-c1ccncc1 | 12.1
88 | O=C(NC(NC(=S)Nc1cccc(Cl)c1)C(Cl)(Cl)Cl)OCc1ccccc1 (centres unmarked) | 10.4
89 | CCOC(=O)c1ccc(NC(=O)c2cccc(S(=O)(=O)N3c4ccccc4CC3C)c2)s1 (centres unmarked) | 14.4
